This is an account of results in PMC4336329 (PLoS ONE, 2015).

About 2,200 (0.71%) of roughly 310,000 compounds showed an effect of 50% or more. The effect is printed as a negative number. Some of the results follow.

For the assay, the target named is human ether-à-go-go-related gene (hERG) potassium channel (human, UniProt Q12809). Briefly: primary screen, population patch clamp on CHO cells stably expressing hERG.
human ether-à-go-go-related gene (hERG) potassium channel, sequence (Q12809 whole entry, looked up): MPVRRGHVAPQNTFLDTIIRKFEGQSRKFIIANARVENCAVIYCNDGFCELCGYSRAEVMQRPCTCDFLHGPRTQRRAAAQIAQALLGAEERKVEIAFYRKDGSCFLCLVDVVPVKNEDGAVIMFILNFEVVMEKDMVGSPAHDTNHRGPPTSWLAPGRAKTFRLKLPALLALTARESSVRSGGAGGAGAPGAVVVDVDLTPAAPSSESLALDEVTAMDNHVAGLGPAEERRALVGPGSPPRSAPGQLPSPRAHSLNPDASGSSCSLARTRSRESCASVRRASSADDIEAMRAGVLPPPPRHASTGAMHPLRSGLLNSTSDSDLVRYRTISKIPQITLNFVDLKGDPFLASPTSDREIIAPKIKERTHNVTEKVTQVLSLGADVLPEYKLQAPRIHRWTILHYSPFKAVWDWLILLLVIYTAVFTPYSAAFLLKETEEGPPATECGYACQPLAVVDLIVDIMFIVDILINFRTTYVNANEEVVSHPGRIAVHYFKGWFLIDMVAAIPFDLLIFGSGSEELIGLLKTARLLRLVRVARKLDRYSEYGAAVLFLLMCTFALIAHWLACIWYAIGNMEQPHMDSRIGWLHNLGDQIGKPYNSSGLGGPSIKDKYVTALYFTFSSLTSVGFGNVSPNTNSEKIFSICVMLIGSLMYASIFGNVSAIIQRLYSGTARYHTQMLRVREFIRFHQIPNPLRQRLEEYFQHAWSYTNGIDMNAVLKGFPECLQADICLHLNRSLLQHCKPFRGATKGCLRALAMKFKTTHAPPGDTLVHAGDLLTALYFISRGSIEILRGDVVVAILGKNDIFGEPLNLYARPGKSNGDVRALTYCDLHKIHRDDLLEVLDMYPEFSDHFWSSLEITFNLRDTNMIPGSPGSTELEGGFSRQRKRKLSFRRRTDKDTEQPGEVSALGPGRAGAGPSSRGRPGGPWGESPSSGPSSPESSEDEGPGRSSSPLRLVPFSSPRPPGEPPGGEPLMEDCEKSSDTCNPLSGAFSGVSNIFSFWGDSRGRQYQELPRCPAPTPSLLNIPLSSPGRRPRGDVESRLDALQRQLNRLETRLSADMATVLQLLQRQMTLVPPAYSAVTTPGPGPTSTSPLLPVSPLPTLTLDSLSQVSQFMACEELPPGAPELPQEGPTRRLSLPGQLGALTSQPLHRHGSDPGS
Turning to `COc1cccc(N=c2oc3cc(O)ccc3cc2C(=O)NCC2CCCO2)c1` (stereo not shown), the “hERG current change (%, negative = inhibition) at 1uM” value worked out at 14.9%.
Take `CCOC(=O)[C@@H]1[C@H]2COc3cc(OC)ccc3[C@@H]2N2C(=O)N(c3cccc(F)c3)C(=O)[C@]12C`: the “hERG current change (%, negative = inhibition) at 1uM” value came out at 7.21%.
Regarding `CC(NC(=O)C1CCCN(C(=O)c2ccc(Cl)cc2)C1)c1cccc(C(F)(F)F)c1` (stereo not shown), the “hERG current change (%, negative = inhibition) at 1uM” value is on record as -5.71%.
Consider `NC(=O)c1c(NC(=O)COC(=O)CSc2nnc(-c3ccc(Cl)cc3)o2)sc2c1CCC2`, for which the “hERG current change (%, negative = inhibition) at 1uM” value was 11.4%.
In the case of `CC(C)NCCOCCOc1ccccc1F.O=C(O)C(=O)O`, the “hERG current change (%, negative = inhibition) at 1uM” value came to 4.39%.
With `Cc1ccc2cccc(OCc3ccccc3)c2n1` the figure was 8.71%; with `CCC(C)NC(=O)Cn1c(=O)n(CCCCC(=O)NCc2ccco2)c(=O)c2ccccc21` (stereo not shown), 11.4%; with `O=C(Nc1ncc(Cc2ccccc2Cl)s1)C1=NCCN1`, 10%.
As for `Cc1ccccc1C(=O)N1CCC(C(=O)Nc2ccc(S(=O)(=O)N3CCCCC3)cc2)CC1`, the “hERG current change (%, negative = inhibition) at 1uM” value is on record as 3.41%.
As for `O=C(O)C(=O)O.O=C(c1cccnc1)N1CCN(CCCc2ccccc2)CC1`, the figure is -2.89%; as for `Cc1cc(C(=O)NCc2ccccc2Br)no1`, 9.66%.
With `COc1ccc(-c2ccc(=O)n(CC(=O)NCc3ccco3)n2)cc1` the figure was 12.5%.
Regarding `CC(=O)c1nn(-c2cccc(Cl)c2)cc1C(=O)c1ccco1`, the “hERG current change (%, negative = inhibition) at 1uM” value amounted to 3.39%.
With `Cc1ccc(OCC(=O)Nc2ccc(S(=O)(=O)Nc3cc(C)nc(C)n3)cc2)cc1` the figure was 16.6%.
For `CCOc1ccc(S(=O)(=O)N2CCC(C(=O)N3CCCCCC3)CC2)cc1Cl`, the “hERG current change (%, negative = inhibition) at 1uM” value is listed as 7.05%.
As to `COc1ccc(/C=C\C(=O)NCC(=O)N/N=C/c2cccc(OC)c2O)cc1`, the “hERG current change (%, negative = inhibition) at 1uM” value is reported as 6.06%.
In the case of `O=C(Nc1ccc(N2CCOCC2)c(Cl)c1)c1ccccc1F`, the “hERG current change (%, negative = inhibition) at 1uM” value turned out to be 6.41%.
As for `S=c1nc[nH]c2c1ncn2C1CCCO1` (stereo not shown), the “hERG current change (%, negative = inhibition) at 1uM” value is reported as 13.2%.
For `O=C(O)CC(NCc1ccco1)C(=O)OCCc1ccccc1` (stereo not shown), the “hERG current change (%, negative = inhibition) at 1uM” value is 13.7%.
With `CC1CN(Cc2csc(-c3ccc(Cl)cc3)n2)CC(C)O1.O=C(O)C(=O)O` (stereo not shown) the figure was 17.7%; with `C=CCc1cccc(/C=N/NC(=O)c2ccccc2Br)c1O`, -18.8%; with `CC(=O)Nc1c(O)nc(SCC(=O)Nc2sc3c(c2C#N)CCCCCC3)[nH]c1=O`, 4.02%.
Consider `CC(Sc1nnc(C2CC2)n1C)C(=O)Nc1ccc2c(c1)CCC2` (stereo not shown), for which the “hERG current change (%, negative = inhibition) at 1uM” value is on record as 4.51%.
`CC(C)c1cc(CN2CCN(CCC#N)CC2)cc(C(C)C)c1O`: the “hERG current change (%, negative = inhibition) at 1uM” value is listed as -10.2%.
Take `Cc1ccc(S(=O)(=O)n2cccc2CO)cc1`: the “hERG current change (%, negative = inhibition) at 1uM” value stood at 9.97%.
As to `CC(=O)c1cc2c(cc1NS(=O)(=O)c1ccccc1)OCO2`, the “hERG current change (%, negative = inhibition) at 1uM” value came out at 8.87%.
As to `Cc1cccc(C(=O)NC(=S)N2CCN(C)CC2)c1`, the “hERG current change (%, negative = inhibition) at 1uM” value is on record as -4.74%.
Consider `CS(=O)(=O)N1CCC(C(=O)Nc2ccc(Cl)c(Cl)c2)CC1`, for which the “hERG current change (%, negative = inhibition) at 1uM” value was 15.7%.
In the case of `Cc1ccccc1CC1(CO)CCCN(C(=O)CCC(=O)c2ccccc2)C1` (stereo not shown), the “hERG current change (%, negative = inhibition) at 1uM” value amounted to 5.59%.
With `COC(=O)c1ccc(C[n+]2ccccc2)cc1.[Br-]`, the “hERG current change (%, negative = inhibition) at 1uM” value was determined as 15.1%.
On to `COc1ccc(S(=O)(=O)NC(CCSC)C(=O)NC2CCCCC2)cc1` (stereo not shown), for which the “hERG current change (%, negative = inhibition) at 1uM” value was 15.3%.
With `CN(C(=O)CCN1C(=O)C(C)(C)Nc2ccccc21)c1ccccc1`, the “hERG current change (%, negative = inhibition) at 1uM” value is given as 11%.
As for `CCC1=Nc2cc(C(=O)NCc3ccco3)ccc2Sc2ccc(Cl)cc21`, the figure is 29.8%; as for `CC1C(=O)N2CCCc3cc(S(=O)(=O)N(C)Cc4ccccc4)cc1c32` (stereo not shown), 5.86%; as for `CC1CCN(C(=O)c2cc3nc(C4CC4)cc(C(F)(F)F)n3n2)CC1`, -7%.
With `CCCCC1C(=O)NC(=S)NC1=O`, the “hERG current change (%, negative = inhibition) at 1uM” value worked out at 6.71%.
With `C=CCN1C(=O)S/C(=C\c2ccc3c(c2)n(C)c(=O)n3C)C1=O`, the “hERG current change (%, negative = inhibition) at 1uM” value stood at 6.47%.
With `Cc1cc([N+](=O)[O-])nn1CC(=O)c1ccccc1`, the “hERG current change (%, negative = inhibition) at 1uM” value was found to be 0.665%.
In the case of `COc1cc(C(=O)NCCC(=O)NCc2c(F)cc(F)cc2F)cc(OC)c1OC`, the “hERG current change (%, negative = inhibition) at 1uM” value worked out at 11.7%.
In the case of `Cc1ccc(SCc2cc(=O)[nH]c(Nc3nc(C)c4ccc(C)cc4n3)n2)cc1`, the “hERG current change (%, negative = inhibition) at 1uM” value turned out to be 17.9%.
With `COc1cccc(/C=N/NC(=O)CNC(=O)c2cccnc2)c1O` the figure was 18.6%.
Regarding `CCOc1ccc2c(c1)c(N=Nc1cccc(C(=O)O)c1)c(O)n2C`, the “hERG current change (%, negative = inhibition) at 1uM” value is on record as 10.8%.
For the compound `COc1ccc(C(=O)CSc2nnc(-c3cccs3)n2-c2ccccc2)cc1`, the “hERG current change (%, negative = inhibition) at 1uM” value was 14.4%.
